Results: the supplement of paper PMC3334620
In all, about 33,000 sequences were measured (“E-score (-0.5 to 0.5)”: median about -0.012, highest 2% from about 0.29 on). This is one part of the list.

What follows are sequences tested against T1, Ybr033w (UniProt P38073) (assay: PBM E-score (8-mer binding enrichment) (E-score (-0.5 to 0.5)); higher = stronger / more preferred TF binding; most listed sequences are background and not binding sites). Conditions: protein concentration: 200 nM; construct: GST-full length.
T1 sequence: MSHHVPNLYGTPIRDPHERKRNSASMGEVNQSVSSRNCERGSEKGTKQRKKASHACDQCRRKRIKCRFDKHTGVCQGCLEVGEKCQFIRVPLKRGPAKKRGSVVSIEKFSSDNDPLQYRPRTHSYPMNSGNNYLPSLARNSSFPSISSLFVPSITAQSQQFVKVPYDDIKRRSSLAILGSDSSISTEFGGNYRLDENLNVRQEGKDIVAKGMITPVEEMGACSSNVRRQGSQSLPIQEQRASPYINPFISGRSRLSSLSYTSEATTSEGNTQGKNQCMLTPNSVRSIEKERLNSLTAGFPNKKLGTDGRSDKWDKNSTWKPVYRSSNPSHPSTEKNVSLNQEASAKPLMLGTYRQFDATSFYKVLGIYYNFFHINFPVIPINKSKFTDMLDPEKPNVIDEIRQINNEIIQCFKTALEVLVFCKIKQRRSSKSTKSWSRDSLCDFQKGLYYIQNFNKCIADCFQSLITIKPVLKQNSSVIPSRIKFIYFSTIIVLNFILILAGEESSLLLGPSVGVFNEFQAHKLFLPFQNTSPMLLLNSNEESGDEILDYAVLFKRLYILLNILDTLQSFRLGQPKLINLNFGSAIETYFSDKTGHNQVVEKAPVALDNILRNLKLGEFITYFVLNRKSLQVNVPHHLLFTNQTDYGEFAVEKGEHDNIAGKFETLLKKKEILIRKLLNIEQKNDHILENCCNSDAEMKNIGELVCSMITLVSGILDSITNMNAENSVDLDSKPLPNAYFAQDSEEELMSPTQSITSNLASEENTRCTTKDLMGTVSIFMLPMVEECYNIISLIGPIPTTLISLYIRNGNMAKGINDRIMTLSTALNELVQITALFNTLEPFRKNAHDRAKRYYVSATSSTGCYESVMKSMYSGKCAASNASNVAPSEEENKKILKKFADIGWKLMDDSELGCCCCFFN
Procedure, shortened: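 Bound GST-tagged yeast transcription factors, applied at about 100-200 nM to double-stranded universal all-10-mer Agilent arrays, were detected with fluorescent anti-GST. Scans were normalised with masliner. A modified Wilcoxon-Mann-Whitney statistic, the E-score, was assigned to each ungapped eight-base word pooled with its reverse complement by the Universal PBM Analysis Suite.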

Sequence | PBM E-score
GGATCAAA | 0.367
AGGGAGAG | -0.255
GACAGGTA | -0.133
GGATCGCC | -0.123
AAAGACGA | 0.0553
GATGGGAA | -0.0943
CCTGAAGG | -0.182
GCACAAAC | -0.0739
CCCCAACA | -0.0451
AGGTTAAG | -0.00148
CGCCCCGA | -0.206
CTAGCGAA | -0.191
AGATGAAA | 0.0735
CGGCCTAA | 0.00964
GGCGAGCC | -0.212
CGGTAACG | -0.234
CAGACGCA | 0.036
CATCGATC | -0.0186
CGTAAGGA | -0.00651
AGTTCCAG | 0.0573
GTGACGTA | -0.0298
AGAGTTCG | 0.0328
CCTCTCCC | -0.25
ATCGATGA | 0.0647
AGTGCCGC | -0.149

Sequence | PBM E-score
CCAGTCGC | -0.136
ACCTACGA | 0.0606
CACTGATA | 0.0203
CCTCAGAA | -0.228
CAGGCCTA | -0.0342
CCGCGGCA | -0.00902
AGCTTGAG | -0.0261
CAACCATG | -0.0388
GTGGCTCA | -0.102
ATCTCCAG | 0.017
CGTATGAG | 0.00857
ATCTGTGA | 0.141
AAAGCACC | -0.0391
AAAATCTG | 0.235
TAGTAGCA | 0.11
CGCTTCCC | -0.296
GATGGGCA | -0.0503
TAATGCTA | 0.252
ACAGTCCA | -0.00715
CAAGTCAA | 0.11
ACAAGAGG | -0.154
GGTTCCTA | -0.116
AAGGAAAG | -0.147
CCCTTATA | 0.0469
AACGGGGC | -0.143

Sequence | PBM E-score
CTCAAGTC | -0.0954
AAACGCCA | 0.0711
ATAGGACC | -0.212
AATATGGT | 0.16
AACGTCAA | 0.138
CTTGTGAA | 0.136
AAGGTGCA | -0.00764
CGTAGTCC | -0.231
TTATTAAA | 0.283
CTCATGCA | 0.00544
GGCATGCC | -0.0568
GATTGATA | 0.238
AGATTCGA | -0.0441
AAAGACCT | -0.101
AGTAGCCA | -0.184
ATTTTCTC | 0.201
CTGATAGA | 0.0969
CATGCTGC | -0.154
ATAAGATG | 0.173
CATATGTC | -0.0743
ATACCACC | 0.114
CATGCTAG | -0.0277
GGTTCTAC | -0.0153
GTCGACTA | 0.171
CTTGCTCC | -0.133

Sequence | PBM E-score
CTCTATCC | -0.0705
GCTCAAAA | 0.146
AATTCAAG | 0.233
ACTTGGGA | -0.0817
CGGTGGTC | -0.0278
AGCCAGGA | -0.00989
ACATTCAT | 0.235
CACTCTAC | 0.0644
ACCAGCAG | -0.15
TCAAACCA | 0.186
ATCGGGCA | -0.215
TGCAACAA | 0.157
GGCTCACC | -0.218
GTATTAGA | 0.228
GCGGAGCC | -0.304
ACCGATGC | -0.116
CAAGAGCG | -0.115
GTAGACAC | 0.0538
GAATGCGC | 0.0787
CGGTGTGA | 0.107
CCTGGGGA | -0.323
ATGACTAA | 0.0188
ACAGGCAA | 0.0445
GACGGGTA | -0.212
CATAGGGC | -0.155

Sequence | PBM E-score
ATTGCCAA | -0.00029
ATATGATC | 0.268
AGAGCGGC | -0.104
GCCAAAGA | 0.00251
GTGAAGCA | -0.00164
AATGTGGA | 0.0893
CATTCAGG | -0.0502
GGGCCGAC | -0.196
CCCATTAC | -0.17
GCTGCTAC | -0.175
GATACTGA | 0.0886
CGTTTACA | -0.0549
CCATCTAG | -0.0741
CTTGCTAA | 0.0713
ACTCGGCG | -0.0867
ACCAAGAT | 0.197
AGTGAAGG | -0.0941
ACCGTATG | -0.0854
CCACCAAA | -0.0586
CCATGGGA | -0.0942
AGCCCCAT | -0.224
CTTCCGTC | 0.018
CCTGGGTA | -0.17
CATGAGAA | 0.00513
AAAACCCT | -0.0706

Sequence | PBM E-score
CCATTCAC | -0.108
CCGGGGCA | -0.219
AAGAAAGG | 0.0767
AGCTTCAG | 0.0406
AGAAAATG | 0.13
GCTGAGCC | -0.322
CATGCGAG | -0.217
ATCGAAGC | -0.0452
ACAGGGAT | 0.0777
ACCAACCA | -0.0191
CGTCGTTC | 0.193
CAGGGACC | -0.383
CAGGTAAA | 0.233
CACACCGA | 0.0972
ACATAACT | 0.113
GGTTGACA | 0.0779
AGTTTGGG | 0.165
AGCGGATC | 0.023
AGCAAAAC | 0.0585
AATGATGC | 0.162
AATCAGTG | -0.0807
CCGTTAAG | -0.121
TGCAATAA | 0.167
GATCAGCC | -0.0555
ATTGACGG | -0.0845

Sequence | PBM E-score
CGGTAGAA | -0.294
AACGTGAC | -0.0568
CGGATTGA | 0.0349
ACCCGCTA | -0.0201
CGACACCC | -0.275
ATTCTGTA | 0.103
AGAAGTAA | 0.176
AAATTATG | 0.227
CATGTCCC | -0.153
CGCATCTA | 0.201
CTGCCATC | -0.113
AAGTGGTC | 0.0337
GAGGTACC | -0.157
CAGTTTAA | -0.00782
ACCTGGGA | -0.00837
ACATTAGT | 0.105
GTAAGCAA | 0.112
CCGCAGTA | -0.00848
AATACTTA | 0.251
TACGAGGA | 0.0233
ATACTTAA | 0.254
TAATTCGA | 0.159
